In PubChem BioAssay AID1347417 (National Center for Advancing Translational Sciences (NCATS), 2020):
Screen size: about 120,000 compounds; about 5,300 (4.4%) were called active. The inconclusive results got no clear call from the source; some entries with a clear call stand among them for comparison. Calls come from the whole dose curve; as a rule, active = well fitted inhibition curve with a large enough effect; inconclusive = small, poorly fitted or top-dose-only effect; inactive = no such curve, though single readings can be large or run the other way. Potencies of inconclusive entries are doubtful fits and often do not repeat.

Experiment: qHTS Primary assay for Inhibitors of Plasmodium falciparum Dd2 growth in vitro; note: nearly all actives have a fitted effect of over 65% in size;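 for activity, negative = inhibition: plate controls were DMSO vehicle for no effect and reference drug for full effect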
Conditions: P. falciparum Dd2 growth, SYBR Green, 72 h; activity, negative = inhibition: at 28.9 µM (top of the series) unless noted; series mostly up to 28.9 µM
Procedure, shortened: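 Readout: SYBR Green fluorescence, 485 nm excitation, 535 nm emission, after ~16 h lysis at 37C. Before that, Dd2-infected red cells (2.5% hematocrit) grew 72 h with compound, 29 uM top final concentration.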
Potency is the fitted concentration of half-maximal effect; tags give direction and shape of the fitted curve.

SMILES | Potency | activity, negative = inhibition | outcome
CCCC(=O)N1Cc2ccccc2CC2(CCN(C)C2)C1 (stereo not given) | active: 11.2 µM | – | –
CC(C)c1ccc2oc(-c3ccc(NC(=O)c4cccc(Br)c4)cc3)nc2c1 | inconclusive: 12.6 µM [inhibitor, single point] | – | –
C#C[C@H]1CN2CC[C@H]1C[C@@H]2CNS(=O)(=O)c1ccc(OC)cc1 | active: 3.16 µM | – | –
Cc1ccc2nc(-c3ccc(NC(=O)c4ccc(S(C)(=O)=O)cc4)cc3)sc2c1 | – | inconclusive: -98.7% [inhibitor] [at 5.79 µM] | –
COc1cc2c(cc1CCc1ccccc1)N(C(=O)C1CCC(C)CC1)CC21CCN(C(C)=O)CC1 (stereo not given) | inconclusive: 17.8 µM [inhibitor, single point] | – | –
O=C(C1CC(=O)N(c2n[nH]c3cccc(F)c23)C1)N1CCC(Cc2ccccc2)CC1 (stereo not given) | – | inactive: -20.7% | –
CCc1ccc(CNCc2c(C(=O)O)n(Cc3ccc(C)cc3)c3cc(C)ccc23)cc1 | active: 5.01 µM | – | –
CC(=O)N1CC2(CCCCN2C(=O)CCC(=O)O)Cc2ccccc21 (stereo not given) | – | inconclusive: -45.5% [inhibitor] | –
O=C(c1cccs1)N1CCC2(CC1)N=C(c1ccc(Cl)cc1)NO2 | – | inactive: -23.1% | –
Cc1nn(-c2ccccc2)c(Oc2ccc(F)cc2F)c1CCC(=O)NCC1CC1 | – | inactive: -16.3% | –
CCC1CN(S(=O)(=O)c2cc(-c3onc(C)c3C)ccc2C)c2cc(Cl)ccc2O1 (stereo not given) | inconclusive: 11.2 µM [inhibitor, single point] | – | –
Fc1ccc(CN2Cc3[nH]cnc3C[C@H]2c2nc(-c3ccc(F)c(Cl)c3)no2)cc1 | active: 11.2 µM | – | –
COc1ccc(CN2CCCCC23Cc2ccccc2CNC3=O)c(OC)n1 (stereo not given) | inconclusive: 6.31 µM [inhibitor, partial curve, poor fit] | – | –
O=C1c2cnc(-c3cccc(C(F)(F)F)c3)nc2OCCN1Cc1ccccc1 | inconclusive: 8.91 µM [inhibitor, partial curve, poor fit] | – | –
CCc1ccc(C(=O)c2cn(CC(=O)Nc3ccc(OC)cc3)c3cc4c(cc3c2=O)OCO4)cc1 | inconclusive: 12.6 µM [inhibitor, single point] | – | –
COC(=O)[C@@H]1Cc2ncn(Cc3ccc(Cl)cc3)c2CN1Cc1ccc(NC(C)=O)cc1 | inconclusive: 3.98 µM [inhibitor, partial curve, poor fit] | – | –
COC[C@@H]1CN(C(=O)c2ccc(OC)nc2OC)C[C@H]1c1ccncc1 | – | inactive: -10% | –
CN1CCC2(C1)CN(CC1CC1)c1ccc(C(=O)NC3CCCCC3)cc12 (stereo not given) | inconclusive: 12.6 µM [inhibitor, partial curve, poor fit] | – | –
CCCN1CCN(c2ncnc3sc(C(=O)Nc4c(C)cc(C)cc4C)c(C)c23)CC1 | inconclusive: 17.8 µM [inhibitor, single point] | – | –
CCOc1cccc(CNC(=O)[C@H]2CCC[C@H]2NC(=O)c2cnc(C)cn2)c1 | inconclusive: 5.62 µM [inhibitor, partial curve, poor fit] | – | –
Cc1cc(OC2CN([S+](=O)([O-])c3ccc(C(F)(F)F)cc3)C2)ccc1F | – | inactive: -6.89% | –
O=C(NCc1ccc(OC(F)(F)F)cc1)N1CCCC(Cn2cnc3cccnc32)C1 (stereo not given) | active: 7.08 µM | – | –

SMILES | Potency | activity, negative = inhibition | outcome
O=C(NCCn1cccc1-c1nc(-c2ccc3c(c2)OCO3)no1)c1ccc(F)cc1 | – | inactive: 131% | –
COc1ccc(NC(=O)Cn2c(-c3ccc(Cl)cc3)nc(C)cc2=O)cc1 | – | inactive: -3.74% | –
Cc1cc(C)c(S(=O)(=O)c2nnn3c2nc(NC2CCCC2)c2ccccc23)c(C)c1 | active: 11.2 µM | – | –
NC(=O)[C@H](Cc1cccs1)NC(=O)[C@@]1(O)C[C@@H](O)[C@H](O)[C@@H](NC(=O)CC2(CC(=O)O)CCCC2)C1 | – | inactive: 4.07% | –
Cc1cccc(C(=O)N2c3nc(-c4ccco4)nn3C3(CCCCC3)[C@@H]3CCCC[C@@H]32)c1 | inconclusive: 15.8 µM [inhibitor, single point] | – | –
C#CCOc1ccc(C2CC(=O)Nc3c2c(C)nn3-c2nc(C)cc(C)n2)cc1 (stereo not given) | – | inactive: -28.9% | –
COC(=O)c1cccc(NC(=O)c2ccc3c(c2)N(C)C2CCCCN2C3=O)c1 (stereo not given) | inconclusive: 3.98 µM [inhibitor, single point] | – | –
Cc1nnc(-c2cc(-c3ccsc3)ccn2)n1Cc1ccccc1 | inconclusive: 0.631 µM [inhibitor, full curve, poor fit] | – | –
O=C(Nc1ccc2ncnc(N3CCCCC3)c2c1)c1ccc(F)cc1 | – | – | inactive
COCCc1nncn1C1CCN(C(=O)c2cc(F)ccc2F)CC1 | – | inactive: -22.5% | –
COc1ccc(C(=O)N2CCc3nc(C4CC4)nc(-c4ccc(Cl)cc4)c3C2)cc1 | inconclusive: 11.2 µM [inhibitor, partial curve, poor fit] | – | –
O=C(Nc1ccc(Br)cc1)c1ccc(F)c(S(=O)(=O)N2CCc3ccccc32)c1 | inconclusive: 10 µM [inhibitor, single point] | – | –
COc1ccc(CN(C)C(C)c2cccs2)cc1 (stereo not given) | inconclusive: 2.51 µM [inhibitor, single point] | – | –
O=C1NCCCCCCN[C@H]2C[C@H](c3nc(-c4cnccn4)no3)C[C@@H]12 | inconclusive: 17.8 µM [inhibitor, single point] | – | –
CC(C)CN1C(=O)C(C)(C)[S+](=O)([O-])[C@H]2CN(c3ccc(Oc4ccccc4)cc3)C[C@@H]21 | inconclusive: 17.8 µM [inhibitor, single point] | – | –
O=C(c1ccccc1F)N1CCC2(C1)C(=NC1CCCC1)NC(=O)N2c1cc(F)cc(F)c1 (stereo not given) | – | inconclusive: -82.6% [inhibitor] | –
O=C1CCN(C(=O)C2CCN(C(=O)Cc3c[nH]c4ccccc34)CC2)CCCCCCN1 | – | – | inactive
Cc1ccc(CN2CCN(C3CCN(C(=O)Nc4ccc(C)cc4Cl)CC3)C(=O)C2=O)cc1 | inconclusive: 11.2 µM [inhibitor, single point] | – | –
CCCCNS(=O)(=O)c1ccc(C)c(-c2nnc3c4ccccc4c(C)nn23)c1 | inconclusive: 17.8 µM [inhibitor, single point] | – | –
COCC(=O)NC[C@H]1O[C@@H](CC(=O)N2CCN(c3ccccc3OC)CC2)[C@H](O)[C@@H]1O | – | inactive: 24.4% | –
Cc1ccc(C(=O)N2CCCOCCNC(=O)CC2)s1 | – | inactive: 12.5% | –
Cc1onc(-c2cnn(C)c2NCc2ccc(C#N)cc2)c1C(=O)NC1CCOCC1 | – | inactive: 2.44% [at 44.1 µM] | –

SMILES | Potency | activity, negative = inhibition | outcome
CCNC(=O)NC[C@H]1C[C@@H]2CCN1C[C@@H]2c1cc(C2CCCCC2)nn1C | inconclusive: 2.24 µM [inhibitor, partial curve, poor fit] | – | –
CSCC[C@@H]1NC(=O)c2cc(NC(=O)c3ccc4ccn(C)c4c3)ccc2NC1=O | inconclusive: 8.91 µM [inhibitor, partial curve] | – | –
COc1ccc(CN2C(=O)[C@@H]3C[C@@H](O)CN3C3(CNC3)C2=O)cc1 | – | inactive: 11.9% [at 44.1 µM] | –
Cc1ccc2c(n1)N(C)[C@H](CO)CCN(Cc1cccc3c1OCO3)C2 | inconclusive: 1 µM [inhibitor, partial curve, poor fit] | – | –
Cc1ccc(C2(O)CCN(C(=O)c3cnn4cc(CCO)cnc34)CC2)nc1 | – | inactive: -16.9% | –
COCCn1c(=O)c2c(n1Cc1ccccc1)CN(Cc1ccc3c(c1)CCO3)CC2 | inconclusive: 11.2 µM [inhibitor, single point] | – | –
O=C(Nc1ccc([C@@H](O)[C@H]2COCC(=O)N2Cc2ccccn2)cc1)c1ccccc1 | – | inactive: 25.9% [at 44.1 µM] | –
O=C(O)COc1ccc(-c2nccc3c2C(=O)N(Cc2cccc(C(F)(F)F)c2)CC(COc2ccccc2)O3)cc1 (stereo not given) | inconclusive: 2.24 µM [inhibitor, full curve] | – | –
CCOc1ccc(NC(=O)C2CC(=O)N(c3n[nH]c4cc(Br)ccc34)C2)cc1 (stereo not given) | inconclusive: 0.398 µM [inhibitor, partial curve, poor fit] | – | –
CCc1ccc(NC(=O)Cn2c(=O)n(-c3ccc(OC)cc3)c(=O)c3ccc(C(=O)NCc4ccc(C)cc4)cc32)cc1 | inconclusive: 2.51 µM [inhibitor, single point] | – | –
COc1cccc(-c2cc(C(=O)N[C@@H](C)c3ncccc3C)[nH]n2)c1 | inconclusive: 4.47 µM [inhibitor, partial curve, poor fit] | – | –
CC1(c2ccccc2)N(Cc2ncccn2)C(=O)OC12CCN(Cc1cccc(OC(F)(F)F)c1)CC2 (stereo not given) | – | – | inactive
COc1ccccc1CNC(=O)CC1COCCN1C(=O)c1cnccn1 (stereo not given) | – | inactive: 6% | –
CCCN(CCC)CC(O)Cn1cc(/C=C/C(=O)c2ccc(Br)cc2)c2ccccc21 (stereo not given) | active: 3.16 µM | – | –
CCn1cc(C(=O)N(C)c2ccc(C(C)C)cc2)c2cc(OC)c(OC)cc2c1=O | inconclusive: 17.8 µM [inhibitor, single point] | – | –
O=C1CC(c2ccccc2)N(Cc2ccncc2)CCCN(C(=O)Cc2cccnc2)CCN1 (stereo not given) | inconclusive: 5.01 µM [inhibitor, partial curve, poor fit] | – | –
Cn1c(=O)c2c(nc(N3CCOCC3)n2Cc2ccc(Br)cc2)n(C)c1=O | – | inactive: 20.4% | –
O=C1OCC2(CCN(Cc3ccn[nH]3)C2)N1Cc1ccccc1 (stereo not given) | – | inactive: -9.31% [at 44.1 µM] | –
COc1ccccc1C(=O)NCCn1ccn2nc(-c3ccc(C)c(C)c3)cc2c1=O | inconclusive: 2.24 µM [inhibitor, full curve, poor fit] | – | –
COc1cccc(C(=O)N2CCC(N3C[C@H](O)C[C@H]3C(=O)N3CCC(C)CC3)CC2)c1 | inconclusive: 11.2 µM [inhibitor, single point] | – | –
CCOC(=O)Cn1c(=O)n(C2CCCCC2)c2nc(-c3ccc(C(C)C)cc3)nc(C(N)=O)c21 | inconclusive: 1.58 µM [inhibitor, full curve, poor fit] | – | –
